Source: patent US11203633B2, “Polynucleotides encoding antibodies or antigen binding fragments thereof that bind pseudomonas perv” (priority 2011, dated 2021)

How the values were obtained:
[1] = tested on: luminescent P. aeruginosa serogroup 05 strain (PAO1.lux); assay: Opsonophagocytic killing (OPK) assay, PAO1.lux; assay type: cell-based, Pseudomonas aeruginosa; conditions: Bs4-WT vs Bs4-GL vs Bs4-GLO; FIG. 27A
Method: This example describes the evaluation of prioritized human IgG1 antibodies to promote OPK of P. aeruginosa. […] OPK assays were performed as described in (DiGiandomenico, A., et al., Infect Immun 72, 7012-7021 (2004)), with modifications. Briefly, assays were performed in 96-well plates using 0.025 ml of each OPK component; P. aeruginosa strains; diluted baby rabbit serum; differentiated HL-60 cells; and monoclonal antibody. In some OPK assays, luminescent P. aeruginosa strains, which were constructed as described (Choi, K. H., et al., Nat Methods 2, 443-448 (2005)), were used. Luminescent OPK assays were performed as described above but with determination of relative luciferase units (RLUs) using a Perkin Elmer ENVISION Multilabel plate reader (Perkin Elmer).

[2] = tested on: P. aeruginosa PAO1 strain (PAO1.lux) attachment to A549 cells; assay: Cell attachment assay (PAO1.lux to A549 cells); assay type: cell-based, Pseudomonas aeruginosa; conditions: Bs4-WT vs Bs4-GL vs Bs4-GLO; FIG. 27B
Method: Anti-Psl antibodies were added to a confluent monolayer of A549 cells (an adenocarcinoma human alveolar basal epithelial cell line) grown in opaque 96-well plates (Nunc Nunclon Delta). Log-phase luminescent P. aeruginosa PAO1 strain (PAO1.lux) was added at an MOI of 10. After incubation of PAO1.lux with A549 cells at 37° C. for 1 hour, the A549 cells were washed, followed by addition of LB+0.5% glucose. Bacteria were quantified following a brief incubation at 37° C. as performed in the OPK assay described in Example 2. Measurements from wells without A549 cells were used to correct for non-specific binding.

[3] = tested on: P. aeruginosa strains (PAO1, 33356, 6294, 6077, 6206, PA103A); assay: Acute pneumonia model in mice, survival; assay type: in vivo, Pseudomonas aeruginosa
Method: (§1) Antibodies or PBS were administered 24 hours before infection in each model. P. aeruginosa acute pneumonia, keratitis, and thermal injury infection models were performed as described (DiGiandomenico, A., et al., Proc Natl Acad Sci USA 104, 4624-4629 (2007)), with modifications. In the acute pneumonia model, BALB/c mice (The Jackson Laboratory) were infected with P. aeruginosa strains suspended in a 0.05 ml inoculum. In the thermal injury model, CF-1 mice (Charles River) received a 10% total body surface area burn with a metal brand heated to 92° C. for 10 seconds. Animals were infected subcutaneously with P. aeruginosa strain 6077 at the indicated dose. For organ burden experiments, acute pneumonia was induced in mice followed by harvesting of lungs, spleens, and kidneys 24 hours post-infection for determination of CFU.
The in vivo effect of administration of an anti-PcrV antibodies was studied in mice using an acute pneumonia model. Groups of mice were treated with either increasing concentrations of the V2L2 antibody, a positive control anti-PcrV antibody (mAb166), or a negative control (R347), as shown in FIG. 13 (A-B). Groups of mice were also treated with either increasing concentrations of the V2L2 antibody, the PcrV antibody PcrV-02, or a negative control (R347), as shown in FIG. 13 (C-D). Twenty-four hours after treatment, all mice were infected with 5×10^7 CFU (C) Pseudomonas aeruginosa 6294 (06) or (D) PA103A (O11).
Groups of mice were treated with either increasing concentrations of the 11A6, 3G5 or V2L7, the same concentrations of 29D2, 1F3, 1E6, V2L2, LE10, SH3, 4A8, 2H3, or 21F1, increasing concentrations of the 29D2, increasing concentrations of the V2L2, the PcrV antibody PcrV-02, or a negative control (R347), as shown in FIG. 13 (E-H). Mice were injected intraperitoneally (IP) with mAbs 24 hours prior to intranasal infection with Pseudomonas strain 6077 (1×10^6 CFU/animal).

[4] = tested on: P. aeruginosa strains (PAO1, 33356, 6294, 6077, 6206); assay: Acute pneumonia model in mice, organ burden (CFU in lung, spleen, kidneys); assay type: in vivo, Pseudomonas aeruginosa; conditions: 6206 9.5×10^5 CFU; 15.0, 5.0 and 1.0 mg/kg; FIG. 25D
Method: as §1
Organ burden of Pseudomonas-infected mice was also studied in response to administration of V2L2. FIG. 14 (A) Mice were treated with either 1 mg/kg R347 (control), or 1 mg/kg, 0.2 mg/kg, or 0.07 mg/kg of V2L2 and then were infected intranasally with 1.2×10^6 cfu of Pseudomonas 6206. FIG. 14 (B) Mice were also treated with either 15 mg/kg R347 (negative control); 15.0 mg/kg, 5.0 mg/kg, or 1.0 mg/kg mAb166 (positive control); or 5.0 mg/kg, 1.0 mg/kg, or 0.2 mg/kg V2L2 and then were infected intranasally with 5.5×10^6 cfu of Pseudomonas 6206. […]

[5] = tested on: P. aeruginosa (6077 exoU+; 6206) lysis of rabbit red blood cells; assay: Rabbit red blood cell (RBC) lysis inhibition assay; assay type: cell-based, Pseudomonas aeruginosa
Method: Percent inhibition of cytotoxicity analysis was analysed for the parental V2L2 mAb, mAb166 (positive control) and R347 (negative control), where the antibodies were administered to cultured broncho-epithelial cell line A549 combined with log-phase P. aeruginosa strain 6077 (exoU+) at a MOI of approximately 10. A549 lysis was assayed by measuring released lactate dehydrogenase (LDH) activity and lysis in the presence of mAbs was compared to wells without mAb to determine percent inhibition. The V2L2 mAb, mAb166 (positive control) and R347 (negative control) were evaluated for their ability to prevent lysis of RBCs, where the antibodies were mixed with log-phase P. aeruginosa 6077 (exoU^+) and washed rabbit red blood cells (RBCs) and incubated for 2 hours at 37°. Intact RBCs were pelleted and the extent of lysis determined by measuring the OD405 of the cell-free supernatant. Lysis in the presence of anti-PcrV mAbs was compared to wells without mAb to determine percent inhibition. The positive control antibody, mAb166, is a previously characterized anti-PcrV antibody (J Infect Dis. 186: 64-73 (2002), Crit Care Med. 40: 2320-2326 (2012)).

B1: Bs4-V2L2-2C: W4-RAD scFv inserted in hinge region of V2L2 IgG; light and heavy chain SEQ ID NOS: 327 and 328 (antibody)
heavy: EMQLLESGGGLVQPGGSLRLSCAASGFTFSSYAMNWVRQAPGEGLEWVSAITISGITAYYTDSVKGRFTISRDNSKNTLYLQMNSLRAGDTAVYYCAKEEFLPGTHYYYGMDVWGQGTTVTVSSASTKGPSVFPLAPSSKSTSGGTAALGCLVKDYFPEPVTVSWNSGALTSGVHTFPAVLQSSGLYSLSSVVTVPSSSLGTQTYICNVNHKPSNTKVDKRVEPKSCGGGGSGGGGSEVQLLESGPGLVKPSETLSLTCNVAGGSISPYYWTWIRQPPGKCLELIGYIHSSGYTDYNPSLKSRVTISGDTSKKQFSLHVSSVTAADTAVYFCARADWDLLHALDIWGQGTLVTVSSGGGGSGGGGSGGGGSGGGGSEIVLTQSPSSLSTSVGDRVTITCRASQSIRSHLNWYQQKPGKAPKLLIYGASNLQSGVPSRFSGSGSGTDFTLTISSLQPEDFATYYCQQSYSFPLTFGCGTKLEIKGGGGSGGGGS[human IgG1 Fc omitted here]
light: AIQMTQSPSSLSASVGDRVTITCRASQGIRNDLGWYQQKPGKAPKLVIYSASTLQSGVPSRFSGSGSGTDFTLSISSLQPDDFATYYCLQDYNYPWTFGQGTKVEIKRTVAAPSVFIFPPSDEQLKSGTASVVCLLNNFYPREAKVQWKVDNALQSGNSQESVTEQDSKDSTYSLSSTLTLSKADYEKHKVYACEVTHQGLSSPVTKSFNRGEC
modifications: Bs4-V2L2-C2 VL
- difference in functional activity, opsonophagocytic killing assay [1]: No in vitro difference in functional activities
- difference in functional activity, anti-cell attachment assay [2]: No in vitro difference in functional activities
- survival Bs4-V2L2-2C vs. Bs2-V2L2, Log-rank test P ([3]; 6206, 0.5 mg/kg, FIG. 21B): 0.0002
- survival Bs4-V2L2-2C vs. Bs3-V2L2, Log-rank test P ([3]; 6206, 0.5 mg/kg, FIG. 21D): < 0.0001
- survival Bs4-V2L2-2C vs. antibody mixture, Log-rank test P ([3]; 6206, 1 mg/kg vs mixture 0.5 mg/kg each, FIG. 21E): 0.0002
- survival Bs4-V2L2-2C vs. Bs2-V2L2, Log-rank test P ([3]; 6206, 1 mg/kg, FIG. 21B): 0.034
- survival Bs4-V2L2-2C vs. antibody mixture, Log-rank test P ([3]; 6206, 2 mg/kg vs mixture 1 mg/kg each, FIG. 21E): 0.0012
- survival activity in comparison to the W4 and V2L2 antibody mixture ([3]; 6206, Bs4-V2L2-2C 2 and 1 mg/kg, FIG. 21E): greater activity in comparison to the antibody mixture at both 1.0 and 0.5 mg/kg
- survival activity in comparison to Bs2-V2L2 ([3]; 6206, FIG. 21B): greater activity in comparison to Bs2-V2L2 at both 1.0 and 0.5 mg/kg
- survival activity in comparison to Bs2-V2L2 ([3]; 6206, FIG. 21C): appeared to have greater activity in comparison to Bs2-V2L2 at 1.0 mg/kg (results are not statistically significant)
- survival activity in comparison to Bs3-V2L2 ([3]; 6206, FIG. 21D): greater activity in comparison to Bs3-V2L2 at 0.5 mg/kg
- protection against lethal pneumonia, ranking of constructs ([3]; strain 6206 (ExoU+), 0.1-15 mg/kg, FIG. 21I): most effective in protection against lethal pneumonia
- bacterial clearance from the lung [4]: rapid and efficient bacterial clearance was observed from the lung
- bacterial dissemination to the spleen and kidneys [4]: bacterial dissemination to the spleen and kidneys were also ablated
- inhibition of RBC lysis compared to the parental V2L2 antibody ([5]; 6206, FIG. 19C): inhibited RBC lysis at levels similar to the parental V2L2 antibody
- difference in functional activity, RBC lysis anti-cytotoxicity assay ([5]; Bs4-WT vs Bs4-GL vs Bs4-GLO, FIG. 27C): No in vitro difference in functional activities
